Tested on: S. pyogenes strain D471 adherence to bovine submaxillary mucin
Settings: strain D471 preincubated with 25 mM sugar, 30 min at 37° C., washed; 1 μg mucin/well

| SMILES | effect on adherence of strain D471 to bovine mucin compared to untreated bacteria | reduced adherence to bovine mucin compared to untreated bacterial control [%] |
| --- | --- | --- |
| O=C[C@H](O)[C@@H](O)[C@@H](O)[C@H](O)CO [galactose, D-galactose] | did not significantly affect adherence |  |
| CC(=O)N[C@H]1C(O)O[C@H](CO)[C@H](O)[C@@H]1O (some centres unmarked) [GalNAc, N-acetylgalactosamine] | did not significantly affect adherence |  |
| C[C@H](O)[C@@H](O)[C@@H](O)[C@H](O)C=O [fucose, L-fucose] | did not significantly affect adherence |  |
| CC(=O)N[C@H]1[C@H]([C@H](O)[C@H](O)CO)OC(O)(C(=O)O)C[C@@H]1O (some centres unmarked) [sialic acid, N-acetylneuraminic acid] |  | 80 |
| CC(=O)N[C@H]1C(O)O[C@H](CO)[C@@H](O)[C@@H]1O (some centres unmarked) [GlcNAc, N-acetylglucosamine] | doubled |  |

Reference: patent US20060073154A1 (priority 2001, published 2006)
